Structures are written as SMILES. In all, about 50,000 compounds went through this assay and about 800 (1.6%) showed an effect of 50% or more. The list shows a part of the results.

This experiment concerns the target Bcl-2-like protein 10 (Homo sapiens) (UniProt Q9HD36). In words: Phenotype converters, Bcl-B/TR3 peptide binding displacement, primary biochemical FP (AID 1240).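 Also: 0% = Bcl-B with tracer peptide and DMSO and 100% = tracer peptide lacking Bcl-B.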 Conditions: GST-Bcl-B / FITC-TR3 peptide fluorescence polarization; stronger effect = higher value; compound at 3.75 mg/L. Background: Fluorescence polarisation rises when a labelled molecule tumbles more slowly, as on binding a larger partner.
UniProt Q9HD36, sequence (Q9HD36 whole entry, looked up): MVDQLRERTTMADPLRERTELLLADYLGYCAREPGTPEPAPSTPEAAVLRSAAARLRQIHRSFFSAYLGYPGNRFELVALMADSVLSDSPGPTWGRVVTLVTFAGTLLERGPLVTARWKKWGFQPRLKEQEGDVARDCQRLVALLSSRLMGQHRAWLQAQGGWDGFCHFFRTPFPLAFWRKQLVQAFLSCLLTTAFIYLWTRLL
Regarding `O=C(CSc1ncc(-c2ccccc2)[nH]1)NCCOc1ccccc1`, the displacement was found to be 29.8%.
Then `COC(=O)c1cc(NC(=O)c2cccc(Cl)c2Cl)cc(C(=O)OC)c1`, with 12.6%; and `O=C(COc1cccc(Cl)c1)N/N=C\c1cccnc1`, with 6.5%; and `O=C(NC(=S)Nc1ccc2oc(-c3ccccc3)nc2c1)c1ccccc1`, with -10.6%.
Turning to `O=C1c2cccc3cccc(c23)C(=O)N1c1ccc2c(c1)OCO2`, the displacement came out at 0.6%.
For the compound `C/C(=N/n1cnnc1)c1ccc(NS(=O)(=O)c2ccc(Br)cc2)cc1`, the displacement was found to be 1.6%.
`COc1ccc(-c2cc(C(=O)NCc3ccco3)c3ccccc3n2)cc1`: the displacement was -0.3%.
Consider `O=C(N/N=C/c1ccc[nH]1)c1cccc(Cl)c1`, for which the displacement is -6.5%.
Then `CCOc1ccccc1N1CCN(C(=O)COc2ccc(Cl)cc2C)CC1`, with -8.1%; and `COC1=C(C(C)(C)C)C(=O)C(=O)C(C(C)(C)C)=C1OC`, with 1%.
Then `CCOc1cc(/C=C2\C(=O)NC(C)=C2C(=O)OC)ccc1O`, with 13.6%; and `COc1ccccc1/C=C1\C=C(c2ccc(Cl)cc2)OC1=O`, with 9.6%.
Then `CCOC(=O)C1=C(C)N=c2s/c(=C\c3ccc(Br)o3)c(=O)n2C1c1cccc(OC)c1` (configuration not stated), with 10.7%.
Regarding `CC(C)(C)c1nnc(NC(=S)Nc2ccccc2)s1`, the displacement was -7.2%.
As to `CCCOC(=O)c1ccc(NC(=O)c2cccc(OCc3ccccc3)c2)cc1`, the displacement is -3.3%.
In the case of `CCOC(=O)c1c(CC(C)C)csc1NC(=O)c1ccccc1Cl`, the displacement is -2.4%.
Then `COc1ccc(-c2nc(-c3ccc(OC)c(OC)c3)no2)cc1`, with 29.1%.
With `O=S(=O)(CCc1nc2ccccc2s1)c1ccc(Cl)cc1` the figure was 0.3%; with `CCOC(=O)C(=CNc1ccc2c(c1)OCO2)C(=O)OCC`, 1.4%; with `OC(CNc1ccc(F)cc1)COc1ccc(OCC(O)CNc2ccc(F)cc2)cc1` (configuration not stated), 8.5%.
As for `O=C(O)c1ccc(N2C(=O)CC(N3CCC(C(=O)O)CC3)C2=O)cc1` (configuration not stated), the displacement worked out at 3.9%.
As to `O=C(COc1ccc(Br)cc1)Nc1ccc(N2CCCCC2)c(Cl)c1`, the displacement came to 7.3%.
Then `CCNC(=O)CC1S/C(=N\N=C2/CCCc3ccccc32)NC1=O` (configuration not stated), with -8.7%.
Then `CCCCN(CCCC)C(=O)c1ccc(Cl)c([N+](=O)[O-])c1`, with -4.1%; and `COc1ccc(C=Nc2ccc(Sc3ccc([N+](=O)[O-])cc3)cc2)cc1OC`, with -4.2%.
Then `Cc1ccc(C2CC(C(F)(F)F)n3nc(C(=O)Nc4c(C)n(C)n(-c5ccccc5)c4=O)c(Cl)c3N2)cc1` (configuration not stated), with 1.1%; and `Cc1cccc(/C=C2/SC(=S)N(Cc3ccccc3)C2=O)c1`, with 13.4%.
With `O=S(=O)(Cc1ccccc1)NCC1CCCO1` (configuration not stated), the displacement worked out at 5.8%.
Then `O=C(N/N=C/c1ccccc1F)c1cc(Br)ccc1O`, with 9.1%; and `Cc1ccc(NC(=S)N/N=C2\CC(=O)CC(C)(C)C2)cc1`, with 7.7%; and `CCOc1ccc(N(CC(=O)NCCOC)S(=O)(=O)c2ccc(Br)cc2)cc1`, with 2.5%.
With `Cc1cc(NCCN2CCOCC2)n2c(nc3ccccc32)c1C#N`, the displacement was -13.4%.
With `CCCN=C(CCC)C1=C(O)C(C(=O)OC)C(C)(C)CC1=O` (configuration not stated), the displacement is 7.2%.
With `CCOc1ccc(/C=C(/C#N)C(=O)Nc2cccc(Br)c2)cc1OCC` the figure was 10.4%.
Then `CCC(=O)N1CCN(c2ccc([N+](=O)[O-])cc2)CC1`, with 13.4%.
Then `CC(=O)Nc1ccc(I)cc1C`, with -5%; and `NC(=O)SCC(=O)Nc1cccc(O)c1`, with 5.1%; and `COc1cccc(NC(=O)CCCN2C(=O)c3cccc4cccc(c34)C2=O)c1`, with 6.9%.
On to `O=C(N/N=C/c1ccc(-c2ccccc2[N+](=O)[O-])o1)Nc1ccccc1`, for which the displacement was determined as 17.3%.
With `O=C(NCc1ccccc1)C(=O)Nc1cccc(Cl)c1` the figure was 10.3%.
With `O=c1nc(N/N=C/c2c(O)ccc3ccccc23)cn[nH]1` the figure was 44%; with `COc1ccccc1N1CCN(/N=C(\C)c2ccncc2)CC1`, 14.9%; with `COc1cc(C(=O)Nc2ncc(Cc3cccc4ccccc34)s2)cc(OC)c1OC`, 28.8%.
Then `NS(=O)(=O)c1cccc(NC(=O)c2cc(I)ccc2Cl)c1`, with -1.9%; and `CC(=O)CC1(O)C(=O)N(Cc2ccccc2)c2ccccc21` (configuration not stated), with 13.2%; and `CN(C)c1ccc(C2CC(c3ccc(Br)cc3)=NN2C(=O)CCC(=O)O)cc1` (configuration not stated), with 10.5%.
On to `Cc1cc(OCCCN2CCOCC2)ccc1Cl`, for which the displacement is -3.1%.
Then `CC1=C(C(=O)Nc2ccc(C)cc2)C(c2ccc3c4c(cccc24)CC3)NC(=S)N1` (configuration not stated), with 7.2%.
Then `COc1ccc(/C=C/C(=O)NCCN2CCOCC2)cc1OC`, with -4.5%.
Then `Cc1ccccc1OCC(=O)N1CCN(c2ccccn2)CC1`, with 4.6%; and `CCN(C(C)=O)C1=C(N2CCOCC2)C(=O)c2ccccc2C1=O`, with 3.2%; and `COc1ccc(C2CC(=O)C3=C(C2)Nc2ccccc2NC3c2ccc(SC)cc2)cc1` (configuration not stated), with 3.5%.
`CCOc1ccc(CNc2cccc(C)c2)cc1`: the displacement turned out to be 11%.
With `Cc1n[nH]c(C)c1CCCCCOc1ccc(F)cc1` the figure was 11.1%.
Consider `COc1ccc(N(CC(=O)Nc2ccc(Oc3ccccc3)cc2)S(C)(=O)=O)cc1Cl`, for which the displacement was determined as 6.2%.
`Cc1ccccc1-n1c(C)cc(C=O)c1C`: the displacement turned out to be 14.7%.
On to `CN1C(=O)/C(=C\c2cc(Cl)ccc2OCc2ccc(F)cc2)SC1=S`, for which the displacement was determined as 3.5%.
Then `COc1cccc(OCCCn2ccnc2)c1`, with -14.2%.
With `O=C1/C(=C/c2ccc3c(c2)OCO3)SC(=S)N1c1ccc(F)cc1` the figure was 11.8%; with `Cc1ccsc1/C=C1\SC(=N)N(c2ccc3c(c2)OCO3)C1=O`, 27.3%.
Then `O=C(c1ccc(F)cc1)N1CCN(Cc2ccc(Cl)cc2)CC1`, with 7.7%; and `COc1cc2ccccc2cc1C(=O)Nc1ccc(Cl)c(NC(=O)c2ccccc2)c1`, with 8.3%; and `Cc1ccc(S(=O)(=O)/N=C2/C=C(N3CCOCC3)C(=O)c3ccccc32)cc1`, with 5.8%.
Consider `O=C1CSC2(C(=O)Nc3ccccc32)N1c1cccc(Br)c1` (configuration not stated), for which the displacement was -2.3%.
With `O=C(COc1ccc(/C=N/NS(=O)(=O)c2ccccc2)cc1)Nc1ccc(F)cc1` the figure was 4.5%.
With `O=C1NC(=Nc2cccnc2)S/C1=C\c1ccc(Br)cc1`, the displacement came to 12.1%.
With `c1cc2c(cc1-c1nnc(-c3ccc4c(c3)OCO4)o1)OCO2` the figure was 6.4%; with `Cc1ccc(-c2nc3cc(Cl)cc(Cl)c3o2)cc1N`, 21.8%; with `COc1ccc(-n2c(NN=C(C)C)nc3sc4c(c3c2=O)CC(C)(C)OC4)cc1`, -2.5%.
With `O=c1/c(=C\c2ccccc2)sc2nc(-c3ccc(Cl)cc3Cl)nn12` the figure was 8%.
Take `Cn1c(Cn2c(C(F)(F)F)nc3ccccc32)nc2ccccc21`: the displacement was -5.2%.
With `COc1cccc(NC(=O)CCCOc2ccc(Cl)cc2Cl)c1` the figure was -7.4%.

Values taken from PubChem BioAssay AID1240 (Sanford-Burnham Center for Chemical Genomics, 2008).
